Experimental data taken from PubChem BioAssay AID686970 (National Center for Advancing Translational Sciences (NCATS), 2013).
Out of some 360,000 compounds screened, about 6,000 (1.7%) were called active. Inconclusive means that the source gave no clear call. Such entries were picked first, then a sample of the others. The call rests on the fitted dose curve; in most records, active means well fitted cell-killing curve with a large enough effect; inconclusive means small, poorly fitted or top-dose-only effect, or effect the other way; inactive means flat fitted curve, though single readings scatter. No potency is given beside an inconclusive call; the fits are too rough.

Test: qHTS for induction of synthetic lethality in tumor cells producing 2HG: qHTS for the HT-1080-NT fibrosarcoma cell line;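 further: NT is the 2HG producing partner of a matched IDH1 knockdown line; nearly all actives have a fitted effect of over 55% in size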;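 on activity, negative = less viability: 0% = DMSO-treated cells and -100% = media-only wells without cells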
Conditions: HT-1080-NT fibrosarcoma viability, CellTiter-Glo ATP luminescence, 48 h; activity, negative = less viability: at 46.1 µM (top of the series) unless noted
Procedure, shortened: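 Toxicity toward the 2HG-producing NT line was scored as %Activity, normalised to DMSO and no-cell wells, from CellTiter-Glo luminescence after 48 hours' treatment.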
Potency means the concentration at half of the fitted maximal effect; tags describe the fitted curve by direction and shape.

Row | Compound | Potency | activity, negative = less viability
1 | CN(c1ccccc1)c1ccc(/C=C(\C#N)c2nnc3n2CCCCC3)cc1[N+](=O)[O-] | inactive | 
2 | O=C(O/N=C(\c1ccccc1)c1ccncc1)c1ccccc1Cl | inconclusive [cytotoxic, single point] | 
3 | CCOCCCNC(=O)CN1C(=O)COc2ccc(S(=O)(=O)N3CCOCC3)cc21 | inconclusive [rising, single point] | 
4 | O=C(Nc1ccccc1-c1ccccc1)c1ccc(=O)[nH]n1 |  | inconclusive: 25.7%
5 | COc1ccc2[nH]c(C)c(CCNC(=S)Nc3ccc(F)cc3)c2c1 | inactive | 
6 | COc1cc2c(cc1OC)C(C)N(C(=O)c1nccnc1C(=O)O)CC2 (configuration not stated) | inactive | 
7 | COC(=O)c1ccc(NC(=O)c2cccnc2)cc1 | inconclusive [cytotoxic, single point] | 
8 | CCOc1ccc(C2CC(=O)c3c([nH]c(C(=O)OC)c3C)C2)cc1OC (configuration not stated) | inconclusive [cytotoxic, single point] | 
9 | CC1(C(=O)NS(=O)(=O)Cc2cccc(Cl)c2)CCN1C(=O)CC1CCCC1 (configuration not stated) | inactive | 
10 | Cc1cc(C)nc(Nc2nc3ccccc3[nH]2)n1 | inactive | 
11 | CC(C)Cn1c(C(C)C)nc([N+](=O)[O-])c1S(=O)(=O)c1ccc(F)cc1 | active: 3.55 µM | 
12 | COc1ccc(C2=NN(C(=O)COC(=O)c3ccc(S(C)(=O)=O)c([N+](=O)[O-])c3)C(c3ccco3)C2)cc1 (configuration not stated) | inconclusive [cytotoxic, single point] | 
13 | CC(C)(C)c1ccc(C(=O)NNC(=S)NC(=O)c2cccnc2)cc1 | inconclusive [cytotoxic, single point] | 
14 | Cc1cc(C)c2sc(N(CCCN(C)C)C(=O)c3ccc(S(=O)(=O)N4CCCc5ccccc54)cc3)nc2c1 | active: 18.4 µM | 
15 | CCN1C(=O)[C@@H]2Cc3c([nH]c4ccccc34)C(c3ccc(OC)cc3)N2C1=S (some centres not stated) | inconclusive [cytotoxic, single point] | 
16 | CCOc1ccc(-c2cc(C(=O)N/N=C(\C)c3cccnc3)c3ccccc3n2)cc1 | inconclusive [cytotoxic, full curve] | 
17 | Cc1cc(C)c2c(=O)n(CC(=O)Nc3cccc(Cl)c3C)sc2n1 | inconclusive [cytotoxic, single point] | 
18 | O=c1cc(CO)[nH]cc1OCc1ccccc1 | inactive | 
19 | Nc1c(S(=O)(=O)c2cc(Cl)ccc2Cl)c2nc3ccccc3nc2n1CCN1CCOCC1 | inconclusive [cytotoxic, single point] | 
20 | CC[n+]1c(C=C2C=C(C)OC(C)=C2)sc2ccccc21 | inconclusive [cytotoxic, partial curve] | 
21 | COc1ccc(S(=O)(=O)N2CCN(Cc3cccc(F)c3)CC2)cc1 | inconclusive [rising, single point] | 

Row | Compound | Potency | activity, negative = less viability
22 | O=C1C(=Cc2ccc(Cl)cc2)CCc2ccccc21 | inconclusive [cytotoxic, single point] | 
23 | CC/C(=C/c1ccccc1)c1cccc2[nH]c3c(OC)cccc3c12 | inconclusive [cytotoxic, single point] | 
24 | CCc1cccc2c(C(=O)CN3C(=O)NC4(CCc5ccccc54)C3=O)c[nH]c12 (configuration not stated) | inconclusive [cytotoxic, partial curve] | 
25 | c1ccc(CN2CCC3(CC2)Nc2ccccc2CO3)cc1 | inconclusive [cytotoxic, partial curve] | 
26 | Nc1nnc(SCCOc2ccccc2)s1 | inconclusive [cytotoxic, single point] | 
27 | CCC(C)(C)NC(=O)C(c1ccc(C)o1)N(Cc1cccs1)C(=O)Cn1nnc2ccccc21 (configuration not stated) | inconclusive [cytotoxic, single point] | 
28 | O=C(CNC(=O)c1ccc2c(c1)OCO2)N/N=C/c1cc(Br)ccc1O | inconclusive [cytotoxic, partial curve, poor fit] | 
29 | CCC(C)(C)C1CCc2[nH]nc(C(=O)NC(C)C)c2C1 (configuration not stated) | inactive | 
30 | COc1ccc(NC(=O)CCCn2c(=O)c3sccc3n(Cc3ccccc3C)c2=O)cc1 | inactive | 
31 | C[C@H](CO)N1C[C@H](C)[C@@H](CN(C)Cc2ccc(Cl)c(Cl)c2)Oc2c(NC(=O)Cc3ccccc3)cccc2C1=O | inactive | 
32 | O=C(N/N=C/c1ccco1)c1cc(-c2ccc3ccccc3c2)n[nH]1 | inconclusive [cytotoxic, single point] | 
33 | COc1cc(CCC(=O)OCC(=O)Nc2ccc3c(c2)OCO3)cc(OC)c1OC | inactive | 
34 | CC(=O)Nc1cc(-c2cccc(C(=O)NCCN(C)C)c2)cn2c(-c3ccc(C(C)=O)cc3)cnc12 | active: 18.4 µM | 
35 | COc1cc(/C=C2\SC(N)=NC2=O)ccc1OCC(=O)Nc1ccccc1C | inconclusive [cytotoxic, single point] | 
36 | CCOC(=O)c1ccc(-c2ccc(/C=C(\C#N)C(=O)NCc3cccs3)o2)cc1 | inactive | 
37 | CC1C(=O)N(Cc2cn(CC3CCCCC3)nn2)CCS(=O)(=O)N1Cc1ccc(-c2ccc(Cl)c(Cl)c2)cc1 (configuration not stated) | inconclusive [cytotoxic, single point] | 
38 | C#CCOCCOCCOCCNc1nc(N2CCN(C(=O)[C@H]([C@@H](C)CC)n3cc([C@@H](N)CC(C)C)nn3)CC2)nc(N2CCN(C(=O)[C@H]([C@@H](C)CC)n3cc([C@@H](N)CC(C)C)nn3)CC2)n1 | inactive | 
39 | CC12CCC(=O)N1C(C(=O)Nc1ccc(Cl)c(S(=O)(=O)N3CCCCC3)c1)CS2 (configuration not stated) | inactive | 
40 | CC(=O)Nc1cc(-c2cccc(N)c2)cn2c(-c3ccc(C(C)=O)cc3)cnc12 | inconclusive [cytotoxic, partial curve, poor fit] | 
41 | Clc1cccc(Cc2c(-c3cccc(Br)c3)nc3ccc(Cl)cn23)c1 | inconclusive [cytotoxic, single point] | 
42 | CC1(C(=O)Nc2ccc3ccccc3c2)CCC(=O)N1CCc1c[nH]c2ccccc12 (configuration not stated) | inconclusive [cytotoxic, single point] | 
